Two compounds from US20200011856A1, “Method for Determining the Effectiveness of Treatment for the Prevention of Heartworm Disease” (priority 2017, published 2020) can be followed below.

This experiment concerns Strongyloides stercoralis. The experiment can be described thus: Strongyloides stercoralis L3 infection of NSG mice with or without MPA, treatment, counts of adult worms, L1 and L3. The settings on record: 5000 S. stercoralis L3 SC. From the text:
Strongyloides stercoralis (threadworm) is a human pathogenic parasitic roundworm that causes the disease strongyloidiasis. The adult parasitic stage lives in tunnels in the mucosa of the small intestine. S. stercoralis has been reported in other mammals, including cats and dogs. S. stercoralis infects an estimated 100 million people. Its ability to autoinfect its host enables it to persist for decades undetected and to progress to a potentially fatal hyperinfection that often is induced by glucocorticoid treatment. The mouse model described herein recapitulates all forms of human strongyloidiasis.
NSG mice infected by subcutaneous injection with 5000 S. stercoralis L3 larvae, either with or without MPA. Mice were treated with 2.5 mg/kg EMO or 3 mg/kg IVM on days 1, 15, and 30 post-injection. Adult worms, L1 larvae, or L3 larvae were counted in the mice at 6 weeks post-injection.

For the compound `CC[C@H](C)[C@H]1O[C@]2(CC[C@@H]1C)C[C@@H]1C[C@@H](C/C=C(\C)[C@@H](O[C@H]3C[C@H](OC)[C@@H](O[C@H]4C[C@H](OC)[C@@H](O)[C@H](C)O4)[C@H](C)O3)[C@@H](C)/C=C/C=C3\CO[C@@H]4[C@H](O)C(C)=C[C@@H](C(=O)O1)[C@]34O)O2` [IVM, ivermectin], the “Intestinal infection: adult worms and L1 larvae” value (3 mg/kg on days 1, 15, and 30, 6 weeks post-injection) was “clearly controlled the intestinal infection, eliminating adult worms and L1 larvae”.

Regarding `CC(C)C[C@H]1C(=O)O[C@H](Cc2ccc(N3CCOCC3)cc2)C(=O)N(C)[C@@H](CC(C)C)C(=O)O[C@H](C)C(=O)N(C)[C@@H](CC(C)C)C(=O)O[C@H](Cc2ccc(N3CCOCC3)cc2)C(=O)N(C)[C@@H](CC(C)C)C(=O)O[C@H](C)C(=O)N1C` [EMO, emodepside], under “2.5 mg/kg on days 1, 15, and 30, 6 weeks post-injection”, the “Intestinal infection: adult worms and L1 larvae” value is “clearly controlled the intestinal infection, eliminating adult worms and L1 larvae”.
